Laboratory results published in the supplement of paper PMC4166925.
± gives the standard deviation of the averaged measurements. In all, about 33,000 sequences were measured (“E-score (dimensionless, -0.5 to 0.5)”: median about -0.046, highest 2% from about 0.36 on). Some of the results follow.

tested on: T1, SpTbr T-box DNA-binding domain (GST fusion); assay: PBM E-score of 8-mer (E-score (dimensionless, -0.5 to 0.5)); Tbr is Tbrain of the sea star Patiria miniata (Pm) or the sea urchin Strongylocentrotus purpuratus (Sp); higher = stronger binding preference; most listed sequences are background and not binding sites; conditions: the construct has about 5 more residues each side
T1 sequence: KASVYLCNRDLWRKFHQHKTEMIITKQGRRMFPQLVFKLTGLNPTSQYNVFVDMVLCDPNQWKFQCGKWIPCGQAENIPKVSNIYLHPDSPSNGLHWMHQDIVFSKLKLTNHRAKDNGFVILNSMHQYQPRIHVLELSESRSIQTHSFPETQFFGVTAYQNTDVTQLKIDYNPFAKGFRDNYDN
Experimental: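 Universal protein-binding microarray (Agilent AMADID 016060, 60-bp probes with a 35-bp variable region) incubated with 200 nM GST-fused Strongylocentrotus purpuratus Tbr T-box DNA-binding domain (residues 362-554) in PBS pH 7.5. Scored for every ungapped 8-mer (given with its reverse complement) as E-score (range -0.5 to 0.5; >0.45 counts as bound) and Z-score of median probe intensity. Two replicate arrays (datasets 1 and 2).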
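Also: protein at 200 nM in PBS on universal double-stranded arrays.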

Sequence	PBM E-score of 8-mer
CTGCCGAA	-0.0929 ± 0.017
ACACCGAG	0.223 ± 0.0051
CCTGGAAG	-0.0328 ± 0.025
CAGGATCG	0.0982 ± 0.016
AAAGAGAG	-0.0256 ± 0.025
CCCGGAAA	-0.166 ± 0.0047
ACTAGCGC	0.0746 ± 0.061
AGTCATCC	-0.186 ± 0.021
CATAAGGA	-0.176 ± 0.047
GCGCGTAC	0.189 ± 0.031
CAGCCCGG	-0.16 ± 0.07
CTCCGACA	0.248 ± 0.011
ACTCTTGG	0.0491 ± 0.036
AGGCTCTA	-0.194 ± 0.043
CCCATCGG	-0.173 ± 0.073
TCAAGAGA	-0.146 ± 0.066
ATCGCTCC	-0.00967 ± 0.043
TCATATCA	0.0665 ± 0.022
CCATCCAC	0.000305 ± 0.018
AACTGATC	-0.0634 ± 0.015
CCGCAACG	-0.206 ± 0.061
ATTATCAA	-0.0682 ± 0.11
ATAGGGTG	0.202 ± 0.0067
GTTGGATA	0.0211 ± 0.034
ACTATGAC	0.16 ± 0.0057

Sequence	PBM E-score of 8-mer
ATTTGTCG	0.156 ± 0.017
AAATTACG	-0.0498 ± 0.015
ACGAACTG	0.0146 ± 0.005
AGGGATGC	-0.106 ± 0.045
AAGCCTTG	-0.0684 ± 0.018
ACGTAAGT	-0.0022 ± 0.049
CCTATCCA	-0.128 ± 0.06
CCGGAGCC	-0.154 ± 0.019
ATACGATA	0.0458 ± 0.0051
GCCTGGCC	-0.11 ± 0.042
ACCTTGAA	0.078 ± 0.032
GACTATGC	-0.0275 ± 0.051
ACCTAGTC	0.0902 ± 0.049
AGGGCTAT	-0.3048 ± 0.0006
TCACATCA	0.244 ± 0.0068
CCTCATGA	-0.17 ± 0.052
GACCACCC	-0.0294 ± 0.0021
TACACGAA	-0.0857 ± 0.046
ATCCGTTG	0.055 ± 0.03
ATGGATGA	-0.161 ± 0.039
CAAGAGGG	-0.0842 ± 0.019
AACGTATG	-0.15 ± 0.013
ACCACCCG	0.19632 ± 0.00012
CGGGAGAA	-0.0944 ± 0.018
AGGAGTTA	-0.0738 ± 0.06

Sequence	PBM E-score of 8-mer
TACGGGAA	-0.184 ± 0.049
GTCGTTTA	0.0537 ± 0.065
AGATGATG	-0.186 ± 0.03
ACCCCAGT	-0.26 ± 0.041
CAGGAAGG	-0.0666 ± 0.017
CTTCCATA	-0.266 ± 0.054
CAGGTAGA	0.0271 ± 0.053
GGCCGTTA	-0.0839 ± 0.031
GGGGGGCA	-0.299 ± 0.035
TGACCCCA	-0.112 ± 0.051
GGCTAGCC	-0.125 ± 0.013
ACGGGCTG	-0.04 ± 0.019
AGTTAACG	0.127 ± 0.006
TCGGTAGA	-0.12 ± 0.029
CAGTCTAA	-0.234 ± 0.013
AAAATCTT	-0.306 ± 0.05
AGAGGGAG	-0.151 ± 0.094
ACCGGCAC	0.143 ± 0.016
ACAGTGAG	0.182 ± 0.035
CTTAGACC	0.121 ± 0.036
AATTACCT	0.0506 ± 0.021
GGGCATTA	-0.0886 ± 0.022
CTTAGCTC	-0.108 ± 0.0053
CCTTCCAC	0.117 ± 0.00096
GCTCACTA	0.106 ± 0.035

Sequence	PBM E-score of 8-mer
ACTTGTAC	-0.109 ± 0.04
CCTCTTCC	-0.301 ± 0.058
GACGAACC	-0.0477 ± 0.062
ATGGTAGC	-0.0119 ± 0.043
AGGGGCTC	-0.19 ± 0.036
TACCCTCA	-0.129 ± 0.052
GCCCAGTA	-0.317 ± 0.047
AAGGTACC	-0.0254 ± 0.032
GTTACAAA	0.0843 ± 0.029
CCAGCGCA	0.053 ± 0.05
TAAGCGTA	-0.151 ± 0.1
CGCGGTTC	0.248 ± 0.017
AGGAGGCG	0.188 ± 0.0036
GAGGCACA	-0.0216 ± 0.022
ATTGCCGA	0.0197 ± 0.05
AGCCTGCA	-0.302 ± 0.061
CTATATAG	0.0511 ± 0.096
CCAATTTA	-0.0787 ± 0.089
AGAATGGA	-0.1419 ± 0.00046
CTTCCCCA	0.0679 ± 0.013
CTAAAGTA	-0.152 ± 0.067
GGTGTACA	0.124 ± 0.027
AACGCCTC	0.35 ± 0.0088
CCAGTAAC	-0.0456 ± 0.12
CGCTTATC	0.114 ± 0.058

Sequence	PBM E-score of 8-mer
ACCCGTAG	-0.108 ± 0.068
ACAACCTC	0.188 ± 0.052
ATCGCAAG	0.177 ± 0.03
CAGGGGCG	0.178 ± 0.0098
AACGACCT	-0.022 ± 0.073
CTGTGTGA	0.341 ± 0.0081
CATTGCGG	-0.135 ± 0.14
TTCATGAA	-0.226 ± 0.058
GCGTGTGA	0.399 ± 0.0074
CAGCGCGA	0.199 ± 0.0059
CGCTACCG	0.161 ± 0.065
AGCATAGC	-0.135 ± 0.061
GGTCTCTA	-0.0913 ± 0.053
GGAGTAAC	-0.105 ± 0.093
AGCGATCA	-0.012 ± 0.037
AAAGCAGG	0.0689 ± 0.054
GCATCCCA	-0.16 ± 0.063
GGTTGGTA	0.0117 ± 0.0092
CATGGGGG	-0.208 ± 0.089
TGCCGGCA	-0.014 ± 0.024
GCCCCGAA	-0.289 ± 0.048
CTATGATA	-0.0559 ± 0.048
CAGCTCTA	0.0297 ± 0.058
AAACGGGA	-0.195 ± 0.016
AAAAATCG	0.0348 ± 0.06

Sequence	PBM E-score of 8-mer
AAGCTCCT	-0.254 ± 0.0019
AAGTTCCG	-0.08626 ± 0.00049
GTGCAGGA	-0.022 ± 0.029
TACTGAGA	-0.222 ± 0.019
ACTTCTTA	0.0319 ± 0.0027
CTTGTGGC	0.0823 ± 0.0071
ATTATAAT	0.0341 ± 0.035
CACTTAAC	0.254 ± 0.023
GTACGTTA	-0.0864 ± 0.023
ACCTCCGT	0.294 ± 0.014
ACAATCAG	-0.0516 ± 0.0027
CACGGCAC	0.136 ± 0.0037
GGGTCTTA	-0.234 ± 0.013
ACCAACTC	-0.0494 ± 0.099
ACGCCAGT	0.103 ± 0.015
CTTATACC	-0.158 ± 0.0016
AGTCTAAA	-0.245 ± 0.028
CCAGAAAC	-0.0652 ± 0.12
GGGGCCCC	-0.206 ± 0.032
CTTCCGAC	-0.0491 ± 0.042
GTTTCGTA	0.0678 ± 0.063
AAGTTGCA	-0.0877 ± 0.04
AAGCGGCA	-0.0503 ± 0.027
GAAGCAAA	-0.213 ± 0.071
CGGGGCGA	0.00653 ± 0.024

Sequence	PBM E-score of 8-mer
AGTACGAT	-0.142 ± 0.0097
CAGTAGGC	0.000145 ± 0.048
AACCCAAG	-0.0609 ± 0.0022
CCGCGCGA	0.203 ± 0.03
GTTATATA	-0.0254 ± 0.014
TGTACGAA	-0.0938 ± 0.015
CTCGAGAC	-0.0685 ± 0.051
ATCAACTC	0.162 ± 0.063
CTATCGGC	0.0551 ± 0.08
CGTTGTGC	0.151 ± 0.022
AAGGCGAC	0.245 ± 0.017
ACGGCAGT	-0.173 ± 0.031
CAGCTGAC	0.0252 ± 0.062
CACACTCG	0.426 ± 0.019
CACGTCGC	0.258 ± 0.021
GCAGGAGC	-0.139 ± 0.0006
ATCCACAA	-0.0482 ± 0.053
GAGATATA	-0.166 ± 0.0067
ATTCCTTC	-0.213 ± 0.035
ACGAATAC	-0.0938 ± 0.04
AGTTGTGA	0.407 ± 0.0049
AATACGGC	-0.0576 ± 0.085
